The source of these data is publication PMC4729902.

No constants are given. Whether binding was seen depends on the method and setting. In cells and extracts the contact can be indirect. Some entries that bind do so weakly or less than the wild type.

The target of experiment [1] is T1, YTHDC2, endogenous in mouse testis (mouse (endogenous in testis)) (UniProt B2RR83).
T1 sequence: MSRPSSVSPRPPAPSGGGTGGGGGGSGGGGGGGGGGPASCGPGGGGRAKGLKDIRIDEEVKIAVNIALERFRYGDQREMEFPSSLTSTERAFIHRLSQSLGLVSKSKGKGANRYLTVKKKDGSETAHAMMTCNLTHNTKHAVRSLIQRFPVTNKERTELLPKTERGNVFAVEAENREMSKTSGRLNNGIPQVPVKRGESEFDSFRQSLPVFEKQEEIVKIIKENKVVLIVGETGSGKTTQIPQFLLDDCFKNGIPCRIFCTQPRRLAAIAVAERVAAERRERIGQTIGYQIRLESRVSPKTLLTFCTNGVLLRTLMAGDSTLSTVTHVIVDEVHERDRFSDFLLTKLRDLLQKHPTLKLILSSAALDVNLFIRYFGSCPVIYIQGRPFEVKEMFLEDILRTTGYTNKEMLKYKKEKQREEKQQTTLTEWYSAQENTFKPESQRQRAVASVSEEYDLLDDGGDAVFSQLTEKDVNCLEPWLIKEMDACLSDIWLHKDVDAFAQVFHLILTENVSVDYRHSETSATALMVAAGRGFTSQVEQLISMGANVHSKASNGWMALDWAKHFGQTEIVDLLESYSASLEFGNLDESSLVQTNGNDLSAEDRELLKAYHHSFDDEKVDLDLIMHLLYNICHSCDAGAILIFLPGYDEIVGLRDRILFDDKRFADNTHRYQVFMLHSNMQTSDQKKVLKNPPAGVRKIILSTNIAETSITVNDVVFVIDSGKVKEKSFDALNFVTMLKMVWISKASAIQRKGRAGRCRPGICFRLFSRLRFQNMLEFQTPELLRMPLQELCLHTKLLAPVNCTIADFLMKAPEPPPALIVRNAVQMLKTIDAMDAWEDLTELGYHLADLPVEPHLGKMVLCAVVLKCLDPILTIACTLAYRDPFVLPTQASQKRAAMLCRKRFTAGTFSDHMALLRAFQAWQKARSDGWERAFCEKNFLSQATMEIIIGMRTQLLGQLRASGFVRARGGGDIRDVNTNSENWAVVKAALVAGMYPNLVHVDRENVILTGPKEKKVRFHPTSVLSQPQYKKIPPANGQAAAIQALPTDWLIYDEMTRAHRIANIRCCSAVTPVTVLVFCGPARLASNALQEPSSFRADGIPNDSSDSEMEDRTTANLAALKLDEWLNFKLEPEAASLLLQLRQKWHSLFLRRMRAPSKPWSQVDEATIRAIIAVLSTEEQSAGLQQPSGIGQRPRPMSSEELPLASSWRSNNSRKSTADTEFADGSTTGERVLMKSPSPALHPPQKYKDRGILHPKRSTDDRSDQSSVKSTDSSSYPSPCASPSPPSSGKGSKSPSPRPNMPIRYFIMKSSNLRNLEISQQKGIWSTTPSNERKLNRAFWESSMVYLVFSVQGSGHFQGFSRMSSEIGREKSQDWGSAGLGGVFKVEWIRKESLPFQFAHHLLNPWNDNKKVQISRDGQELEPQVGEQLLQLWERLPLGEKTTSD
The experiment in a line: co-IP; IP of YTHDC2 or of MEIOC from postnatal mouse testis extracts, western blot; also after benzonase treatment; binding buffer 25 mM Tris-HCl pH 7.5, 150 mM NaCl, 2 h at 4 °C. For orientation: In western blotting, separated proteins are transferred to a membrane and probed.

Experiment [2] concerns the target T2, MEIOC (Meiosis specific with coiled-coil domain), endogenous in mouse testis (mouse (endogenous in testis)) (UniProt A2AG06).
T2 sequence: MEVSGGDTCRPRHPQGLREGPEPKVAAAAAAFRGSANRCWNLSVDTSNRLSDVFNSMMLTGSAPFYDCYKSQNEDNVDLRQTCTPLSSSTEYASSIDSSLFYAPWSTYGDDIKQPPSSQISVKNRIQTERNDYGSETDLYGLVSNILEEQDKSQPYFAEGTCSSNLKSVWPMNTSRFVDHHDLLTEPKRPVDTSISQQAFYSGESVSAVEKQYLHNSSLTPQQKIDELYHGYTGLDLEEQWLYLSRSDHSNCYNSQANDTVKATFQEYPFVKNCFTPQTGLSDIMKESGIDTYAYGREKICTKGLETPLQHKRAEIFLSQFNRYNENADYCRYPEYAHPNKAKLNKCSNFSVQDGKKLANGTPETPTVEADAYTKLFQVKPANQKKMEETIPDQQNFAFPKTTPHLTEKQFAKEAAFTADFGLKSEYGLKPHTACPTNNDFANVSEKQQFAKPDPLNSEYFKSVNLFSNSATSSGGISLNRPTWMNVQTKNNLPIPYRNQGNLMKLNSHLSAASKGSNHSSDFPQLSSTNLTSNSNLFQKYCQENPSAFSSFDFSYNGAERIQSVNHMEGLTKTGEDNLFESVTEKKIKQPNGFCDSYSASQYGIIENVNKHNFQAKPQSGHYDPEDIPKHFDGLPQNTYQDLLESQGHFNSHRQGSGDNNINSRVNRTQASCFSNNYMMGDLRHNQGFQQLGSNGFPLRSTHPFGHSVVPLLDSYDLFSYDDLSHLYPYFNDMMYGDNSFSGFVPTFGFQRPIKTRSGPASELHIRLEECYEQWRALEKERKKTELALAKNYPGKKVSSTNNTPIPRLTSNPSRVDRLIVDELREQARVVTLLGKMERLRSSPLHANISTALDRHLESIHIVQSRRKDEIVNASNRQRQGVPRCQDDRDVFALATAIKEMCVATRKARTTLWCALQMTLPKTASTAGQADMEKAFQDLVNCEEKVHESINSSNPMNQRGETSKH
The experiment is described as above.

B1: MEIOC (Meiosis specific with coiled-coil domain), endogenous in mouse testis (protein, UniProt A2AG06 1-965)
chain: MEVSGGDTCRPRHPQGLREGPEPKVAAAAAAFRGSANRCWNLSVDTSNRLSDVFNSMMLTGSAPFYDCYKSQNEDNVDLRQTCTPLSSSTEYASSIDSSLFYAPWSTYGDDIKQPPSSQISVKNRIQTERNDYGSETDLYGLVSNILEEQDKSQPYFAEGTCSSNLKSVWPMNTSRFVDHHDLLTEPKRPVDTSISQQAFYSGESVSAVEKQYLHNSSLTPQQKIDELYHGYTGLDLEEQWLYLSRSDHSNCYNSQANDTVKATFQEYPFVKNCFTPQTGLSDIMKESGIDTYAYGREKICTKGLETPLQHKRAEIFLSQFNRYNENADYCRYPEYAHPNKAKLNKCSNFSVQDGKKLANGTPETPTVEADAYTKLFQVKPANQKKMEETIPDQQNFAFPKTTPHLTEKQFAKEAAFTADFGLKSEYGLKPHTACPTNNDFANVSEKQQFAKPDPLNSEYFKSVNLFSNSATSSGGISLNRPTWMNVQTKNNLPIPYRNQGNLMKLNSHLSAASKGSNHSSDFPQLSSTNLTSNSNLFQKYCQENPSAFSSFDFSYNGAERIQSVNHMEGLTKTGEDNLFESVTEKKIKQPNGFCDSYSASQYGIIENVNKHNFQAKPQSGHYDPEDIPKHFDGLPQNTYQDLLESQGHFNSHRQGSGDNNINSRVNRTQASCFSNNYMMGDLRHNQGFQQLGSNGFPLRSTHPFGHSVVPLLDSYDLFSYDDLSHLYPYFNDMMYGDNSFSGFVPTFGFQRPIKTRSGPASELHIRLEECYEQWRALEKERKKTELALAKNYPGKKVSSTNNTPIPRLTSNPSRVDRLIVDELREQARVVTLLGKMERLRSSPLHANISTALDRHLESIHIVQSRRKDEIVNASNRQRQGVPRCQDDRDVFALATAIKEMCVATRKARTTLWCALQMTLPKTASTAGQADMEKAFQDLVNCEEKVHESINSSNPMNQRGETSKH
On to B1, for which, in experiment [1], the binding result is “binds”.

B2: YTHDC2, endogenous in mouse testis (protein, UniProt B2RR83 1-1445)
chain: MSRPSSVSPRPPAPSGGGTGGGGGGSGGGGGGGGGGPASCGPGGGGRAKGLKDIRIDEEVKIAVNIALERFRYGDQREMEFPSSLTSTERAFIHRLSQSLGLVSKSKGKGANRYLTVKKKDGSETAHAMMTCNLTHNTKHAVRSLIQRFPVTNKERTELLPKTERGNVFAVEAENREMSKTSGRLNNGIPQVPVKRGESEFDSFRQSLPVFEKQEEIVKIIKENKVVLIVGETGSGKTTQIPQFLLDDCFKNGIPCRIFCTQPRRLAAIAVAERVAAERRERIGQTIGYQIRLESRVSPKTLLTFCTNGVLLRTLMAGDSTLSTVTHVIVDEVHERDRFSDFLLTKLRDLLQKHPTLKLILSSAALDVNLFIRYFGSCPVIYIQGRPFEVKEMFLEDILRTTGYTNKEMLKYKKEKQREEKQQTTLTEWYSAQENTFKPESQRQRAVASVSEEYDLLDDGGDAVFSQLTEKDVNCLEPWLIKEMDACLSDIWLHKDVDAFAQVFHLILTENVSVDYRHSETSATALMVAAGRGFTSQVEQLISMGANVHSKASNGWMALDWAKHFGQTEIVDLLESYSASLEFGNLDESSLVQTNGNDLSAEDRELLKAYHHSFDDEKVDLDLIMHLLYNICHSCDAGAILIFLPGYDEIVGLRDRILFDDKRFADNTHRYQVFMLHSNMQTSDQKKVLKNPPAGVRKIILSTNIAETSITVNDVVFVIDSGKVKEKSFDALNFVTMLKMVWISKASAIQRKGRAGRCRPGICFRLFSRLRFQNMLEFQTPELLRMPLQELCLHTKLLAPVNCTIADFLMKAPEPPPALIVRNAVQMLKTIDAMDAWEDLTELGYHLADLPVEPHLGKMVLCAVVLKCLDPILTIACTLAYRDPFVLPTQASQKRAAMLCRKRFTAGTFSDHMALLRAFQAWQKARSDGWERAFCEKNFLSQATMEIIIGMRTQLLGQLRASGFVRARGGGDIRDVNTNSENWAVVKAALVAGMYPNLVHVDRENVILTGPKEKKVRFHPTSVLSQPQYKKIPPANGQAAAIQALPTDWLIYDEMTRAHRIANIRCCSAVTPVTVLVFCGPARLASNALQEPSSFRADGIPNDSSDSEMEDRTTANLAALKLDEWLNFKLEPEAASLLLQLRQKWHSLFLRRMRAPSKPWSQVDEATIRAIIAVLSTEEQSAGLQQPSGIGQRPRPMSSEELPLASSWRSNNSRKSTADTEFADGSTTGERVLMKSPSPALHPPQKYKDRGILHPKRSTDDRSDQSSVKSTDSSSYPSPCASPSPPSSGKGSKSPSPRPNMPIRYFIMKSSNLRNLEISQQKGIWSTTPSNERKLNRAFWESSMVYLVFSVQGSGHFQGFSRMSSEIGREKSQDWGSAGLGGVFKVEWIRKESLPFQFAHHLLNPWNDNKKVQISRDGQELEPQVGEQLLQLWERLPLGEKTTSD
For B2, the binding result in experiment [2] was “binds”.
